B1: TPP-8988: anti-CD123 antibody; heavy chain SEQ ID NO: 79, light chain SEQ ID NO: 80 (antibody)
heavy: EVQLLESGGGLVQPGGSLRLSCAVSDYSITSGYYWNWIRQAPGKKLEWMGYISYDGSNNYNPSLKNGRITISRDTSKNTFYLQMNSLRAEDTAVYYCARGEGFYFDSWGQGTLVTVSS[human IgG1 constant region left out here]
light: EIVLTQSPGTLSLSPGERATLSCKSSQSLFFGSTQKNYLAWYQQKPGQAPRLLIYWASTRESGIPDRFSGSGSGTDFTLTISRLEPEDFAVYYCQQYYNYPWTFGQGTKLEIKRTVAAPSVFIFPPSDEQLKSGTASVVCLLNNFYPREAKVQWKVDNALQSGNSQESVTEQDSKDSTYSLSSTLTLSKADYEKHKVYACEVTHQGLSSPVTKSFNRGEC
modifications: Antibody Sequence
B2: TPP-6013: anti-CD123 antibody, a chimeric variant of 12F1; heavy chain SEQ ID NO: 29, light chain SEQ ID NO: 30 (antibody)
heavy: QVQLQESGPGLVKPSQSLSLTCSVTDYSITSGYYWNWIRQFPGNKLEWMGYISYDGSNNYNPSLKNRISITRDTSKNQFFLKLSSVTTEDTATYYCSRGEGFYFDSWGQGTTLTVSS[human IgG1 constant region left out here]
light: DIMMSQSPSSLAVSVGEKFTMTCKSSQSLFFGSTQKNYLAWYQQKPGQSPKLLIYWASTRESGVPDRFTGSGSGTDFTLAISSVMPEDLAVYYCQQYYNYPWTFGGGTKLEIKRTVAAPSVFIFPPSDEQLKSGTASVVCLLNNFYPREAKVQWKVDNALQSGNSQESVTEQDSKDSTYSLSSTLTLSKADYEKHKVYACEVTHQGLSSPVTKSFNRGEC
modifications: Antibody Sequence

Tested on: target-positive cells
Assay: Co-localization assay of the anti-CD123 antibodies with lysosomes
Format: cell-based
Details: CypHer5E-labelled antibody 20 μg/ml, lysosomes stained with CytoPainter LysoGreen
Description: Owing to the linker, the active metabolite of the antibody-drug conjugate is generated by lysosomal degradation. Accordingly, intracellular trafficking after internalization has taken place is of essential importance. Studies about the co-localization of the antibody using labels specific for the lysosomal organelle (e.g. surface molecules or small GTPases) allow the selection of antibodies having the desired profile. To this end, target-positive cells (5×10^4/well) in a total volume of 100 μl were sown into a 96-MTP (Greiner bio-one, CELLSTAR, 650 180, U-bottom). Following addition of the CypHer5E-labelled anti-target antibody (final concentration 20 μg/ml), the batches (duplicates per point in time) were incubated at 37° C. for 30 min, 2 h and 6 h in an incubator (5% CO2). 30 min prior to the end of the chosen incubation time, the lysosome-specific label was added to the batches to be examined. The lysosomes were stained with CytoPainter LysoGreen indicator reagent (final concentration 1:2000; abcam, ab176826). After incubation, 200 μl of ice-cold FACS buffer (DULBECCO'S PBS, Sigma-Aldrich, No. D8537+3% FBS heat inactivated FBS, Gibco, No. 10500-064) were added and the cell suspension was centrifuged at 400×g and 4° C. for 5 min. […] Co-localization was evaluated using a special software (co-localization software IDEAS Application v6.1).

Row | Molecule | Co-localization [%]
1 | B1 | 41
2 | B2 | 43

From patent US11660351B2, “Antibody drug conjugates (ADCs) having enzymatically cleavable groups” (Bayer Pharma Aktiengesellschaft, priority 2016, dated 2023)
